Screen size: about 45,000 compounds; about 200 (0.44%) were called active. Not shown: some 7% with an inconclusive outcome. The call rests on the fitted dose curve; in most records, active means well fitted activation curve with a large enough effect; inconclusive means small, poorly fitted or top-dose-only effect; inactive means no such curve, though single readings can be large or run the other way. This is one part of the list.
Potency means the concentration at half of the fitted maximal effect.

This assay is described as follows: qHTS of TDP-43 Inhibitors: NCGC Sytravon Library Screen. Further: nearly all actives have a fitted effect of over 55% in size. On growth rescue (activation): 0% is about no effect. The settings on record: yeast TDP-43 toxicity rescue, BacTiter-Glo growth, 24 h; series mostly up to 46.1 µM; growth rescue (activation): at the top concentration. The method in brief:
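TDP-43-expressing yeast, pregrown in raffinose, seeded at OD600 0.02 in galactose medium with compound for 24 hr at 30 deg C. Growth read by BacTiter-Glo luminescence, so rescue of toxicity appears as activation.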
With `COC(=O)c1cc(CSc2nc3ccccc3c(=O)n2C)oc1C`, the “growth rescue (activation)” value is inactive: 14.1%.

With `COc1ccc(-c2c3c(=O)n(C)c(=O)n(C)c3cn2-c2ccc(O)cc2)cc1`, the “growth rescue (activation)” value is inactive: 12.8%.

Consider `Cc1ccc(S(=O)(=O)N2CC(O)CC2C(=O)OCc2nc3sc(C)c(C)c3c(=O)[nH]2)cc1` (configuration not stated), for which the “growth rescue (activation)” value is inactive: 15.3%.

As to `CC1(C)c2ccccc2N2CC(=O)NC21/C=C/c1ccco1` (configuration not stated), the “growth rescue (activation)” value was inactive: 17.6%.

In the case of `COc1cccc(C(NC(C)=O)c2ccc3cccnc3c2O)c1` (configuration not stated), the “growth rescue (activation)” value is inactive: -8.71%.

As for `Cc1ccc(S(=O)(=O)N(C)c2ccc(OCC(=O)Nc3nnc(C4CC4)s3)cc2)cc1`, the “growth rescue (activation)” value was inactive: 1.19%.

On to `Cc1cc(C)c(S(=O)(=O)c2ccccc2)c(OC(=O)c2c(Cl)cccc2Cl)n1`, for which the “growth rescue (activation)” value is inactive: 39.4%.

Regarding `CC(C)CCNC(=O)NC(=O)COC(=O)CCN=C1NS(=O)(=O)c2ccccc21`, the “growth rescue (activation)” value is inactive: 4.19%.

On to `O=C(O)c1cc2c(cn1)[nH]c1ccccc12`, for which the “growth rescue (activation)” value is inactive: 12.6%.

Regarding `CN(C)CCOc1nc(-c2ccccc2)nc2c1oc1ccccc12`, the “growth rescue (activation)” value is inactive: 12.2%.

`Cc1cc(/C=C2/C(=O)NN(c3ccccc3)C2=O)c(C)n1-c1cccc(O)c1`: the “growth rescue (activation)” value was inactive: -17%.

For `CC1CN(C(=O)CCC(=O)NCc2cccc(Cl)c2)c2ccccc2S1` (configuration not stated), the “growth rescue (activation)” value is inactive: 26.3%.

With `CSc1ncccc1C(=O)NCCc1ccccc1F`, the “growth rescue (activation)” value was inactive: 9.1%.

Consider `S=C(NCc1ccco1)N/N=C/c1ccncc1`, for which the “growth rescue (activation)” value is inactive: 3.28%.

As to `COc1ccc(C(C)=O)cc1COC(=O)CNC(=O)C1CCCCC1`, the “growth rescue (activation)” value was inactive: 8.53%.

Take `O=C(NCc1ccc2c(c1)OCO2)NC1CCCCC1`: the “growth rescue (activation)” value is inactive: -4.63%.

Take `Cc1noc(C)c1S(=O)(=O)N(C)Cc1ccccc1`: the “growth rescue (activation)” value is inactive: -3.42%.

Consider `Cc1ccc(S(=O)(=O)/N=C2\CN(C)C(=O)N2C)cc1`, for which the “growth rescue (activation)” value is inactive: -3.78%.

Consider `COc1cc(CNC23CC4CC(CC(C4)C2)C3)ccc1OCc1ccccc1`, for which the “growth rescue (activation)” value is inactive: 2.76%.

Turning to `Cc1nn(C(C)C(=O)NC2CCC(C)CC2)c(=O)c2c1sc1ccccc12` (configuration not stated), the “growth rescue (activation)” value is inactive: 15.1%.

As for `N#CC1=C(N)Oc2cc(O)c(C=Nc3ccccc3)cc2C1c1ccccc1` (configuration not stated), the “growth rescue (activation)” value was inactive: 19.1%.

Regarding `Cc1cccc(NC(=O)CN(CC2CCCO2)C(=O)c2cc3ccccc3o2)c1C` (configuration not stated), the “growth rescue (activation)” value is inactive: 20.1%.

`CCOc1ccccc1-c1noc(CCC(=O)NC2CCCCC2)n1`: the “growth rescue (activation)” value was inactive: -0.083%.

For the compound `Cc1ccc(NC(=O)COC(=O)c2ccc(OCc3c(C)noc3C)cc2)cc1S(=O)(=O)N1CCOCC1`, the “growth rescue (activation)” value was inactive: -2.78%.

Regarding `Cc1ccc(OCC(=O)NCCCNC(=O)c2ccncc2)cc1`, the “growth rescue (activation)” value was inactive: -1.95%.

In the case of `COc1ccc(CC(=O)N2CCN(c3ccccc3F)CC2)cc1OC`, the “growth rescue (activation)” value was inactive: 16.3%.

In the case of `Cc1cccc(N2C(=O)/C(=C/c3cccnc3)SC2=S)c1`, the “growth rescue (activation)” value was inactive: -11.5%.

In the case of `N#Cc1c(SCC(=O)Nc2ccccc2C(F)(F)F)sc2c(O)cc(=O)[nH]c12`, the “growth rescue (activation)” value is inactive: 7.78%.

For the compound `Cc1ccc(S(=O)(=O)N(CCC(=O)N2CCOCC2)c2ccccc2)cc1`, the “growth rescue (activation)” value was inactive: 10.5%.

On to `Cc1ccc(Cc2c(C)nc3nc(SCC(=O)NCCCN4CCCC4)nn3c2C)cc1`, for which the “growth rescue (activation)” value is inactive: 12%.

As for `COc1ccccc1C(=O)N/C(=C\c1ccc(Br)cc1)C(=O)NCCC(=O)O`, the “growth rescue (activation)” value is inactive: 6.05%.

Regarding `CSc1ccc(S(=O)(=O)N2CCC(C(=O)Nc3ccccc3C(F)(F)F)CC2)cc1`, the “growth rescue (activation)” value is inactive: 15.3%.

For the compound `NS(=O)(=O)c1ccc(NC(=S)NCc2ccc(F)cc2)cc1`, the “growth rescue (activation)” value is inactive: 0.909%.

`COC(=O)c1c(NC(=O)/C=C/C(=O)O)sc(C)c1-c1ccc(C)cc1`: the “growth rescue (activation)” value was inactive: 8.74%.

As for `CCC1CCCCN1CCCNC(=O)CNC(=O)c1nn(-c2ccc(OC)c(Cl)c2)c(=O)c2ccccc12` (configuration not stated), the “growth rescue (activation)” value is inactive: 13.6%.

`COc1cc(/C=C2\CCC(C3CCCC3)C2=O)ccc1OC(C)C` (configuration not stated): the “growth rescue (activation)” value was inactive: -2.63%.

In the case of `COc1ccc(CNC(=O)CN(c2cccc([N+](=O)[O-])c2)S(C)(=O)=O)cc1`, the “growth rescue (activation)” value was inactive: -5.41%.

Regarding `Cc1ccc(NC(=O)N2CCCC2C(=O)Nc2ccc3c(c2)OCO3)cc1` (configuration not stated), the “growth rescue (activation)” value is inactive: 8.4%.

Consider `Cc1ccc(CSCC(=O)NCc2cccnc2)cc1`, for which the “growth rescue (activation)” value was inactive: 4.97%.

Take `O=C(Nc1ccc(NS(=O)(=O)c2ccccc2)cc1)c1ccccc1Cl`: the “growth rescue (activation)” value was inactive: 20.6%.

On to `CCC(=O)Nc1ccc(C(=O)N2CCN(C(=O)c3ccco3)CC2)cc1`, for which the “growth rescue (activation)” value was inactive: -5.64%.

Take `CC1(C(=O)NS(=O)(=O)C2CC2)CCCN(C(=O)COc2ccc(Cl)cc2Cl)C1` (configuration not stated): the “growth rescue (activation)” value was inactive: -11.5%.

For `CCc1nnc(NC(=O)CS(=O)(=O)c2ccccc2)s1`, the “growth rescue (activation)” value is inactive: -1.14%.

For the compound `CCc1n[nH]c(=S)n1/N=C/c1ccccc1OCc1ccc(Cl)cc1`, the “growth rescue (activation)” value was inactive: 5.42%.

In the case of `O=C(Nc1cccc(NC(=O)c2ccco2)c1)c1ccccc1`, the “growth rescue (activation)” value is inactive: 10.6%.

Turning to `O=C(c1ccc(F)cc1F)N1CCCC(c2nc(-c3cccs3)no2)C1` (configuration not stated), the “growth rescue (activation)” value is inactive: 5.67%.

As for `COc1cc(/C=C/C(=O)c2ccc3c(c2)OCCO3)cc(Br)c1OCC(=O)N(C)C`, the Potency was active: 15.8 µM.

As for `O=C(COC(=O)COc1ccc2ccccc2c1)NCC(F)(F)F`, the “growth rescue (activation)” value was inactive: -18.9%.

As for `COc1cccc(NC(=O)CN(c2ccc([N+](=O)[O-])cc2)S(=O)(=O)c2ccccc2)c1`, the “growth rescue (activation)” value is inactive: 27.3%.

Turning to `CC(C)(C)N(Cc1ccccc1)C(=O)COC(=O)C1CC1`, the “growth rescue (activation)” value is inactive: -16.4%.

As to `COCC(C)n1c(C)cc(C(=O)COC(=O)CCc2nc3ccccc3c(=O)[nH]2)c1C` (configuration not stated), the “growth rescue (activation)” value is inactive: 7.13%.

Take `Cc1nc(SCC(=O)c2ccccc2)c(C#N)c(-c2ccco2)c1C(=O)NCc1ccco1`: the “growth rescue (activation)” value was inactive: -26.3%.

For the origin of these results see PubChem BioAssay AID1347073 (National Center for Advancing Translational Sciences (NCATS), 2019).
